PubChem BioAssay AID485344 (National Center for Advancing Translational Sciences (NCATS), 2010)
The campaign covered roughly 340,000 compounds. About 6,900 (2%) were called active. No stated cut-off is given here; in the data, active means inhibition above about 30%; inactive means below that, where a call was filed. Only a part is listed here, and it is no random draw. Where no call is shown, the source filed none.

biological target: D(2) dopamine receptor (Homo sapiens) (UniProt P14416); test: HTS Assay for Allosteric Antagonists of the Human D2 Dopamine Receptor: Primary Screen for Antagonists; conditions: HEK293 TREx D2 cells, calcium flux, dopamine EC80; at 10 µM; stronger effect = higher value; further: 0% is about no effect
Outline: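 Overnight-induced (tetracycline, 30 C) HEK293 T-REx cells carrying force-coupled D2 receive a no-wash calcium dye, then compound, then EC80 dopamine at 180 s; signals are read kinetically throughout.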

Sequence of UniProt P14416 (P14416 whole entry, looked up): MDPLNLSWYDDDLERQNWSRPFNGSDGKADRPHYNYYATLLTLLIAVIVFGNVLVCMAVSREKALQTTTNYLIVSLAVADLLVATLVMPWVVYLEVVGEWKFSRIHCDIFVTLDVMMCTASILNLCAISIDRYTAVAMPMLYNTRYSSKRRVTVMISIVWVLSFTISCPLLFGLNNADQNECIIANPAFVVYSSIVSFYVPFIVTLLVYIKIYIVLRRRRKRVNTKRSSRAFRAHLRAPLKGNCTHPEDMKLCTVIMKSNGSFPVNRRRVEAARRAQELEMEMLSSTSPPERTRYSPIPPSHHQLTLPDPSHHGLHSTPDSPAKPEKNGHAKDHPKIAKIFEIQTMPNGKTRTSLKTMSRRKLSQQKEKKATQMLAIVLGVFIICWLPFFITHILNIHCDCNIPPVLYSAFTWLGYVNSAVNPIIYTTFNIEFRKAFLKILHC

| SMILES | inhibition |
| --- | --- |
| CCC(C)NC(=O)Cn1ncc2c(C)n(Cc3ccc(F)cc3)c(C)c2c1=O (stereo not given) | 2.21% |
| CCc1ccc(CNC(=O)c2nn(-c3ccc(C)c(C)c3)nc2CO)cc1 | -20.1% |
| Cc1ccc2c(CNCc3cccs3)c(C(=O)O)n(Cc3ccc(F)cc3)c2c1 | -9.56% |
| Cc1ccc2c(=O)cc(C(=O)Nc3sc4c(c3C(=O)NCc3ccco3)CCCC4)oc2c1C | 7.67% |
| COC(=O)c1ccc(Cn2c(=O)cc(C)c3c(C)nn(C)c32)cc1 | 7% |
| CCc1nnc2n1N=C(c1ccc(OC)cc1)CS2 | active: 34.1% |
| CCn1cc(C(=O)N2CCN(c3ccccc3)CC2)c(=O)c2cc(S(=O)(=O)N(C)C3CCCCC3)ccc21 | 1.03% |
| CC(=O)CSc1nc(-c2ccccc2)[nH]c1S(=O)(=O)c1ccc(C)cc1 | 10.3% |
| COc1ccc(Cn2c(CO)cnc2SCc2ccccc2)cc1 | -2.59% |
| O=C(COCc1cc(-c2ccc(F)cc2)on1)Nc1cccc(C(F)(F)F)c1 | 8.91% |
| CCCOc1ccc(C2C(=O)N(C3CCCCC3)CC(=O)N2C2CCCCC2)cc1OC (stereo not given) | 8.93% |
| COc1ccc(-c2cn3c(n2)sc2cc(C(=O)NCCCN4CCN(C)CC4)ccc23)cc1 | 17.8% |
| Fc1ccc(-n2cc(CNCCc3ccccn3)c(-c3ccccc3Cl)n2)cc1 | active: 79% |
| Cc1ccc(-n2c(=O)c3c(C)c(C(=O)N(C)C)sc3n(Cc3ccccc3C)c2=O)cc1C | 16.1% |
| Cc1cccc(Nc2nc(-c3ccccc3)nc3ccccc23)c1 | 7.26% |
| Cc1cccc(Cn2c(CN3CCC(C(=O)NC(C)C)CC3)cc3ccccc32)c1 | -0.495% |
| CCOc1ccc(CNC(=O)c2cc3c(=O)oc4ccc(C)cc4c3s2)cc1 | -6.21% |
| Cc1ccc(NC(=O)CSCc2cc(=O)c3ccccc3[nH]2)c(C)c1 | -15% |
| Cc1ccccc1CNCCCSc1nnnn1C | 7.57% |
| COc1ccc(C2C(C(=O)Nc3ccccc3)=C(C)Nc3nc(-c4ccc(Cl)cc4)nn32)cc1 (stereo not given) | 10.7% |
| CC(Nc1oc(-c2ccc(COc3ccccc3)o2)nc1C#N)c1ccccc1 (stereo not given) | -2.89% |
| Cc1cc(C(=O)OCC(=O)NCCc2ccc(S(N)(=O)=O)cc2)c2ccccc2n1 | active: 37.6% |
| Cc1cccc(-n2ncc3c(NCCOCCO)ncnc32)c1 | 14.9% |
| COc1cccc(N2CC(NC(=O)/C=C\c3ccccc3)CC2=O)c1 (stereo not given) | -3.08% |
| CCC(=O)N1CCc2cc(S(=O)(=O)CCC(=O)Nc3cc(Cl)ccc3OC)ccc21 | 1.92% |

| SMILES | inhibition |
| --- | --- |
| O=C(CSc1nc2c([nH]c3ccccc32)c(=O)n1-c1ccccc1F)Nc1cccc(Cl)c1 | 19.3% |
| CCOc1ccc(-c2cn3c(n2)sc2cc(C(=O)NC(C)C45CC6CC(CC(C6)C4)C5)ccc23)cc1 (stereo not given) | 0.691% |
| CC1CCN(C(=O)Cn2cc(SCC(=O)NCc3ccccc3)c3ccccc32)CC1 | 7.22% |
| CCOc1ccc(C(c2c(O)cc(C)n(Cc3ccco3)c2=O)N2CCN(C)CC2)cc1 (stereo not given) | -6.11% |
| O=S(=O)(c1ccccc1)n1nc(-c2ccco2)nc1NCc1ccccc1 | 4.1% |
| CCC(Sc1nnc(-c2ccc(F)cc2)c(-c2ccc(F)cc2)n1)C(=O)NC1CCCC1 (stereo not given) | -6.54% |
| COc1ccc(-n2ncc(C(=O)NCc3cccs3)c2C2CCN(C(=O)OC(C)(C)C)CC2)cc1 | 0.541% |
| Cc1cccc(CNC(=O)C2CCN(c3nn4cc(-c5ccc(F)cc5)nc4s3)CC2)c1 | 7.67% |
| CCc1ccccc1N(CC)C(=O)c1cc2c(s1)-c1ccccc1SC2 | 2.51% |
| O=C(Cc1ccc(Cl)cc1)NC1CC(=O)N(c2ccc3c(c2)OCCO3)C1 (stereo not given) | -26.7% |
| C=CCn1c(CCNC(=O)c2cccs2)nnc1SCC(=O)Nc1cccc(C(C)=O)c1 | active: 33.9% |
| CCC(=O)N1CCCc2cc(S(=O)(=O)N3CCC(C(=O)NC4CCC(C)CC4)CC3)ccc21 (stereo not given) | -0.593% |
| COc1ccc(-c2cn3c(n2)sc2cc(C(=O)NCCc4ccccc4)ccc23)cc1 | -13.7% |
| Cc1ccc(C)c(NC(=O)c2cnc(N3CCCC3)nc2C)c1 | -19.2% |
| O=C(OCc1cc(=O)n2nc(C3CC3)sc2n1)c1cccc(NC(=O)c2ccccc2Cl)c1 | 3.23% |
| O=C(O)Cc1ccc(-n2cccc2)cc1 | active: 37.1% |
| COc1ccc(-c2noc(CN(C(=O)c3ccc(C)cc3C)C(C)C)n2)cc1 | 10.8% |
| CCOC(=O)c1ccccc1NC(=O)CSc1ccc(-c2sc(C)nc2C)nn1 | 16.5% |
| CCN(C(=O)c1c(C)oc2ncnc(N3CCCCC3)c12)c1cc(C)ccc1C | 15.2% |
| COc1cc2nc(NCCc3cccc(C)c3)n3nc(-c4ccccc4)nc3c2cc1OC | -15.8% |
| COc1ccc(C2CC(=O)Nc3c2c(C)nn3-c2nncc(-c3ccccc3)n2)c(OC)c1OC (stereo not given) | -8.5% |
| CCOC(=O)c1cnc2c(ccc3ccccc32)c1Nc1ccccc1O | -8.89% |
| CCOC(=O)c1cccc(NC(=O)COc2ccc3c(C)cc(=O)oc3c2)c1 | -17.5% |
| O=C(CSc1ccc(-c2ccccc2)nn1)Nc1ccc2c(c1)OCCO2 | active: 32.1% |
| Cc1cc(=O)n2nc(N3CCC(C(=O)Nc4ccc(Br)c(C)c4)CC3)sc2n1 | 9.17% |
